Data as given in patent US12331094B2 (Bayer Aktiengesellschaft, priority 2018, dated 2025).

Biological target: T1, rat NPR-A (Rattus norvegicus, UniProt P18910)
T1 construct: expressed in transfected cells; host or cells: CHO cell line stably expressing GCaMP6, co-transfected with CNGA2 and rat NPR-A
T1 sequence (P18910 29-1057): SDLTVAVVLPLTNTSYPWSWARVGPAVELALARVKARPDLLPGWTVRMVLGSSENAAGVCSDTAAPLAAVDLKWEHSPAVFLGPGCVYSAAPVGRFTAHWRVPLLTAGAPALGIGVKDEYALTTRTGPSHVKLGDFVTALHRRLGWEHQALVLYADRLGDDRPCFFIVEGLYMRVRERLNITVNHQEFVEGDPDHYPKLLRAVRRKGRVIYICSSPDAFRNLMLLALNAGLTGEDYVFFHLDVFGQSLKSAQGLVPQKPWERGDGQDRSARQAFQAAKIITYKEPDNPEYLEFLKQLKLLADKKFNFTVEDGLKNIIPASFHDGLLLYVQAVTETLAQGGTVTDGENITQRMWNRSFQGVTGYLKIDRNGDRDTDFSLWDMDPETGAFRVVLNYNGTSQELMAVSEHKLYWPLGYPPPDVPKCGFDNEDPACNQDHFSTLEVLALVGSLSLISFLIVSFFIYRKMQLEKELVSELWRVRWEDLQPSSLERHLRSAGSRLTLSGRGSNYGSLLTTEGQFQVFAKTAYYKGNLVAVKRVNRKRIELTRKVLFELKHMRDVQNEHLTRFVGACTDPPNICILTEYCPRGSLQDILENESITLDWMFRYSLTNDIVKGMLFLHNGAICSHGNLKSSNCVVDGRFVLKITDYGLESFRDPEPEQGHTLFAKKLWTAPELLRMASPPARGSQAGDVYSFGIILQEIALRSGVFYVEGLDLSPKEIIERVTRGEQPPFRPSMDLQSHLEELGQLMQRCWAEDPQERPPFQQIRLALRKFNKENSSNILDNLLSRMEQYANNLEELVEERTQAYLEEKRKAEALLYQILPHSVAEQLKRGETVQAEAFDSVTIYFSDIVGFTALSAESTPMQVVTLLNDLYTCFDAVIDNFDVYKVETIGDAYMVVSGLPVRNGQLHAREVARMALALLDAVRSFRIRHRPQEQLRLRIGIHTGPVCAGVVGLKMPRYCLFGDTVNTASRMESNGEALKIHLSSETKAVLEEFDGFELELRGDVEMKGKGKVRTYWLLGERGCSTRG
Experiment: Fluorescence-based rat BNP receptor (NPR-A) GCaMP6/CNGA2 CHO reporter cell line
Conditions: tested up to the max. concentration of 460 nM
Experimental: A luminescence-based rat BNP receptor (NPR-A) cell line was generated as described previously (Wunder et al. (2013), Eur J Pharmacol. 698: 131). Accordingly, a fluorescence-based rat BNP receptor (NPR-A) cell line was generated by co-transfecting a CHO cell line, stably expressing the fluorescent calcium sensor protein GCaMP6, with plasmid constructs encoding CNGA2 (cGMP biosensor) and rat NPR-A.
BNP receptor GCaMP6 cells were cultured for one day on black, clear-bottom 384-well microtiter plates (2500 cells/well). After removal of the cell culture medium reporter cells were loaded for 20 min with Tyrode (130 mM NaCl, 5 mM KCl, 2 mM CaCl2, 20 mM HEPES, 1 mM MgCl2, 4.8 mM NaHCO3 at pH 7.4) containing a black masking dye at 37° C. and 5% CO2. IBMX (0.2 mM) was used to prevent cGMP degradation by endogenous phosphodiesterases.
Fluorescence measurements (3 min, kinetic mode) were directly started upon agonist addition. Receptor ligands were added in Tyrode containing a black masking dye and 0.1% BSA. Measurements were done on a FLIPR Tetra®.

B1: TPP-5657: empty antibody scaffold, negative control; SEQ ID NO 65 and SEQ ID NO 66 (antibody, listed as Homo sapiens)
heavy: [here about 100 residues without letters]LTGAEYFQHWGQGTLVTVSS[here human IgG1 constant region without letters]
light: QSVLTQPPSVSGAPGQRVTISCTGSSSNIGAGYDVHWYQQLPGTAPKLLIYGNSNRPSGVPDRFSGSKSGTSASLAITGLQAEDEADYYCQSYDSSLSGVVFGGGTKLTVLGQPKAAPSVTLFPPSSEELQANKATLVCLISDFYPGAVTVAWKADSSPVKAGVETTTPSKQSNNKYAASSYLSLTPEQWKSHRSYSCQVTHEGSTVEKTVAPTECS
stimulation of the NPR-A cell line: did not significantly stimulate
